According to article PMC9911399, “Two distinct binding modes provide the RNA-binding protein RbFox with extraordinary sequence specificity”:
Positions count from the first letter of the chain named. This is one part of the list.

T1: RBFOX1 RRM RbFoxmut (Fox-RRM*) (Homo sapiens, UniProt Q9NWB1 109-208, R118D;E147R;N151S;E152T)
T1 sequence: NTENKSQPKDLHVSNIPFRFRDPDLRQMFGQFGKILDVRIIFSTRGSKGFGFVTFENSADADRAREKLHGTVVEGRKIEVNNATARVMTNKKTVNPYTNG

B1: UUCUUUC (DNA:RNA)
RNA: GGGAGACCGGAAUUCAGAUUGUCCUUCUUUCUUAAAUCCCGUCGUAGCCACCA
DNA 1: CAATCTGAATTCCGGTCTCCC
DNA 2: TGGTGGCTACGACGGGATT
B2: GUCUCGG (DNA:RNA)
RNA: B1 RNA with U25G, U29C, U30G, C31G
DNA 1: CAATCTGAATTCCGGTCTCCC
DNA 2: TGGTGGCTACGACGGGATT
B3: CUUCGCC (DNA:RNA)
RNA: B1 RNA with U25C, C27U, U28C, U29G, U30C
DNA 1: CAATCTGAATTCCGGTCTCCC
DNA 2: TGGTGGCTACGACGGGATT
B4: CGCCGUA (DNA:RNA)
RNA: B1 RNA with U25C, U26G, U28C, U29G, C31A
DNA 1: CAATCTGAATTCCGGTCTCCC
DNA 2: TGGTGGCTACGACGGGATT
B5: CUAGGCG (DNA:RNA)
RNA: B1 RNA with U25C, C27A, U28G, U29G, U30C, C31G
DNA 1: CAATCTGAATTCCGGTCTCCC
DNA 2: TGGTGGCTACGACGGGATT
B6: CGUUUAG (DNA:RNA)
RNA: B1 RNA with U25C, U26G, C27U, U30A, C31G
DNA 1: CAATCTGAATTCCGGTCTCCC
DNA 2: TGGTGGCTACGACGGGATT
B7: GUUGUCC (DNA:RNA)
RNA: B1 RNA with U25G, C27U, U28G, U30C
DNA 1: CAATCTGAATTCCGGTCTCCC
DNA 2: TGGTGGCTACGACGGGATT
B8: CCCACCA (DNA:RNA)
RNA: B1 RNA with U25C, U26C, U28A, U29C, U30C, C31A
DNA 1: CAATCTGAATTCCGGTCTCCC
DNA 2: TGGTGGCTACGACGGGATT
B9: AAUGCGU (DNA:RNA)
RNA: GGGAGACCGGAAUUCAGAUUGUCCAAUGCGUUUAAAUCCCGUCGUAGCCACCA
DNA 1: CAATCTGAATTCCGGTCTCCC
DNA 2: TGGTGGCTACGACGGGATT
B10: GGAGGGG (DNA:RNA)
RNA: B9 RNA with A25G, A26G, U27A, C29G, U31G
DNA 1: CAATCTGAATTCCGGTCTCCC
DNA 2: TGGTGGCTACGACGGGATT
B11: GUGACCU (DNA:RNA)
RNA: B9 RNA with A25G, A26U, U27G, G28A, G30C
DNA 1: CAATCTGAATTCCGGTCTCCC
DNA 2: TGGTGGCTACGACGGGATT
B12: GGCCUAG (DNA:RNA)
RNA: B1 RNA with U25G, U26G, U28C, U30A, C31G
DNA 1: CAATCTGAATTCCGGTCTCCC
DNA 2: TGGTGGCTACGACGGGATT
B13: CGUGGUG (DNA:RNA)
RNA: B9 RNA with A25C, A26G, C29G, G30U, U31G
DNA 1: CAATCTGAATTCCGGTCTCCC
DNA 2: TGGTGGCTACGACGGGATT
B14: UUGAAGU (DNA:RNA)
RNA: B9 RNA with A25U, A26U, U27G, G28A, C29A
DNA 1: CAATCTGAATTCCGGTCTCCC
DNA 2: TGGTGGCTACGACGGGATT
B15: AAACCCA (DNA:RNA)
RNA: B9 RNA with U27A, G28C, G30C, U31A
DNA 1: CAATCTGAATTCCGGTCTCCC
DNA 2: TGGTGGCTACGACGGGATT
B16: CGACAUG (DNA:RNA)
RNA: B1 RNA with U25C, U26G, C27A, U28C, U29A, C31G
DNA 1: CAATCTGAATTCCGGTCTCCC
DNA 2: TGGTGGCTACGACGGGATT
B17: AAGAACG (DNA:RNA)
RNA: B9 RNA with U27G, G28A, C29A, G30C, U31G
DNA 1: CAATCTGAATTCCGGTCTCCC
DNA 2: TGGTGGCTACGACGGGATT
B18: AGAGGCA (DNA:RNA)
RNA: B9 RNA with A26G, U27A, C29G, G30C, U31A
DNA 1: CAATCTGAATTCCGGTCTCCC
DNA 2: TGGTGGCTACGACGGGATT
B19: AGUGGUA (DNA:RNA)
RNA: B9 RNA with A26G, C29G, G30U, U31A
DNA 1: CAATCTGAATTCCGGTCTCCC
DNA 2: TGGTGGCTACGACGGGATT
B20: CUAUCUG (DNA:RNA)
RNA: B1 RNA with U25C, C27A, U29C, C31G
DNA 1: CAATCTGAATTCCGGTCTCCC
DNA 2: TGGTGGCTACGACGGGATT
B21: CACAGAA (DNA:RNA)
RNA: B9 RNA with A25C, U27C, G28A, C29G, G30A, U31A
DNA 1: CAATCTGAATTCCGGTCTCCC
DNA 2: TGGTGGCTACGACGGGATT
B22: UCGGAUU (DNA:RNA)
RNA: B9 RNA with A25U, A26C, U27G, C29A, G30U
DNA 1: CAATCTGAATTCCGGTCTCCC
DNA 2: TGGTGGCTACGACGGGATT
B23: AAAUGAA (DNA:RNA)
RNA: B9 RNA with U27A, G28U, C29G, G30A, U31A
DNA 1: CAATCTGAATTCCGGTCTCCC
DNA 2: TGGTGGCTACGACGGGATT
B24: GGAGUGA (DNA:RNA)
RNA: B9 RNA with A25G, A26G, U27A, C29U, U31A
DNA 1: CAATCTGAATTCCGGTCTCCC
DNA 2: TGGTGGCTACGACGGGATT
B25: UAGGAAA (DNA:RNA)
RNA: B9 RNA with A25U, U27G, C29A, G30A, U31A
DNA 1: CAATCTGAATTCCGGTCTCCC
DNA 2: TGGTGGCTACGACGGGATT
B26: AAUAAAG (DNA:RNA)
RNA: B9 RNA with G28A, C29A, G30A, U31G
DNA 1: CAATCTGAATTCCGGTCTCCC
DNA 2: TGGTGGCTACGACGGGATT
B27: GAUGUGC (DNA:RNA)
RNA: B9 RNA with A25G, C29U, U31C
DNA 1: CAATCTGAATTCCGGTCTCCC
DNA 2: TGGTGGCTACGACGGGATT
B28: AUAGCUA (DNA:RNA)
RNA: B9 RNA with A26U, U27A, G30U, U31A
DNA 1: CAATCTGAATTCCGGTCTCCC
DNA 2: TGGTGGCTACGACGGGATT
B29: GCUUGUU (DNA:RNA)
RNA: B9 RNA with A25G, A26C, G28U, C29G, G30U
DNA 1: CAATCTGAATTCCGGTCTCCC
DNA 2: TGGTGGCTACGACGGGATT
B30: CAAGCCU (DNA:RNA)
RNA: B9 RNA with A25C, U27A, G30C
DNA 1: CAATCTGAATTCCGGTCTCCC
DNA 2: TGGTGGCTACGACGGGATT
B31: ACAAGUC (DNA:RNA)
RNA: B1 RNA with U25A, U26C, C27A, U28A, U29G
DNA 1: CAATCTGAATTCCGGTCTCCC
DNA 2: TGGTGGCTACGACGGGATT

These binders were tested against T1, RBFOX1 RRM RbFoxmut (Fox-RRM*) (assay: EMSA; HiTS-Eq, 1 nM pool, 10 min; buffer printed only for the single-RNA assays: 10 mM Tris pH 7.5, 150 mM NaCl, 3.4 mM EDTA, 0.001% NP-40, 30 C). Settings: tags: His6 N-terminal (pET28a); label: 5' 32P.
Method in brief: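 Purified RbFox RRM, wild type or mutant, was incubated for 10 min in 50 µL with 1 nM of a 5′-radiolabelled RNA pool carrying 7 randomized nucleotides, whose flanks were annealed to DNA oligonucleotides, over a series of increasing protein concentrations. Unbound RNA was resolved on 8% native PAGE, cut out, reverse-transcribed, barcoded by PCR and sequenced on an Illumina HiSeq 2500. Relative association constants were derived from changes in read counts for each RNA species versus the control reaction and normalised to the cognate motif.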

Binder | binding signal
B1 | 0.0436 KA relative to UGCAUGU
B2 | 0.0951 KA relative to UGCAUGU
B3 | 0.147 KA relative to UGCAUGU
B4 | 0.126 KA relative to UGCAUGU
B5 | 0.113 KA relative to UGCAUGU
B6 | 0.142 KA relative to UGCAUGU
B7 | 0.0969 KA relative to UGCAUGU
B8 | 0.0516 KA relative to UGCAUGU
B9 | 0.115 KA relative to UGCAUGU
B10 | 0.0569 KA relative to UGCAUGU
B11 | 0.087 KA relative to UGCAUGU
B12 | 0.0853 KA relative to UGCAUGU
B13 | 0.18 KA relative to UGCAUGU
B14 | 0.112 KA relative to UGCAUGU
B15 | 0.0806 KA relative to UGCAUGU
B16 | 0.0753 KA relative to UGCAUGU

Binder | binding signal
B17 | 0.166 KA relative to UGCAUGU
B18 | 0.0893 KA relative to UGCAUGU
B19 | 0.186 KA relative to UGCAUGU
B20 | 0.0847 KA relative to UGCAUGU
B21 | 0.11 KA relative to UGCAUGU
B22 | 0.0694 KA relative to UGCAUGU
B23 | 0.0872 KA relative to UGCAUGU
B24 | 0.126 KA relative to UGCAUGU
B25 | 0.0685 KA relative to UGCAUGU
B26 | 0.0862 KA relative to UGCAUGU
B27 | 0.138 KA relative to UGCAUGU
B28 | 0.119 KA relative to UGCAUGU
B29 | 0.194 KA relative to UGCAUGU
B30 | 0.102 KA relative to UGCAUGU
B31 | 0.0675 KA relative to UGCAUGU
